# The full ranking holds about 33,000 sequences; the median of “E-score (-0.5 to 0.5)” is about -0.032, and the highest 2% start at about 0.36. This is one part of the list.
# Biological target: T1, Sko1 (UniProt Q02100)
# T1 sequence: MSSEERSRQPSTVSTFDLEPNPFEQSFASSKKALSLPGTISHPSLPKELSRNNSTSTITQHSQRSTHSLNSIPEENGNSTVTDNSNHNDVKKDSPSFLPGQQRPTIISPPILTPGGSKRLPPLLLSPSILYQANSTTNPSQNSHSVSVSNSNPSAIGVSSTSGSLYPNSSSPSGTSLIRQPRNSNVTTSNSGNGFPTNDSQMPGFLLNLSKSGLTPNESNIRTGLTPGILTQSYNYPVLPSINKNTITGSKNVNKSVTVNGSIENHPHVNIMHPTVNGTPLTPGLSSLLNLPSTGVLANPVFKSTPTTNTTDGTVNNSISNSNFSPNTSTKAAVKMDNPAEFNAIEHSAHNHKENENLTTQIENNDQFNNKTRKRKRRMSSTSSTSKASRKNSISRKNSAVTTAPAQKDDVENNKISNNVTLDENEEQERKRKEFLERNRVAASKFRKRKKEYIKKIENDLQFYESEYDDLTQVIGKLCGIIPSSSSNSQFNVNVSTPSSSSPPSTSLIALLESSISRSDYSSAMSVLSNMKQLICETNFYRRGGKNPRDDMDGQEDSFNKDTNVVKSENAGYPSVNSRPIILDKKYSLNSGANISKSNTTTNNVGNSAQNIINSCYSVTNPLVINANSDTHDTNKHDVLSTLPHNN
# Test: PBM E-score (8-mer binding enrichment) (E-score (-0.5 to 0.5)); higher = stronger / more preferred TF binding; most listed sequences are background and not binding sites
# Details: protein concentration: 200 nM; construct: GST-full length
# Experimental: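 Universal 'all 10-mer' protein binding microarrays (Agilent AMADID 015681) probed with GST-tagged S. cerevisiae TFs (full-length or DBD) made by in vitro transcription/translation (PURExpress), about 100-200 nM. Bound TF was detected with fluorescent anti-GST. Each ungapped 8-mer (which stands for itself and its reverse complement) is scored by the PBM enrichment score (E-score), a modified Wilcoxon-Mann-Whitney statistic from -0.5 to +0.5, computed with the Universal PBM Analysis Suite. Scale: above 0.35 generally sequence-specific binding.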
row,Sequence,PBM E-score
1,AAGCTACC,-0.034
2,TACTCGCA,0.13
3,ACACTCAA,0.169
4,GTTACGGA,0.0875
5,ACCTGCCC,-0.208
6,AATGCCAA,-0.125
7,AACGGTCC,-0.292
8,AAACAAGC,-0.123
9,AGCACCTG,-0.212
10,GCTATACC,-0.171
11,CGCTCACC,-0.131
12,ATCAGCAA,-0.149
13,AAAGACCC,-0.152
14,ATGCTTGA,0.191
15,ATGCGCGA,-0.0192
16,TCGATCCA,-0.0219
17,ACTGGAGA,-0.15
18,ATCACAAG,0.0431
19,AGAGGACT,-0.223
20,AGGTTTAC,0.017
21,CACGACAA,0.0437
22,CTCCCCTC,-0.325
23,AAGTACAA,0.0267
24,ATCCGATA,0.00167
25,GGGTATCA,-0.0528

row,Sequence,PBM E-score
1,CTGAGAAA,-0.075
2,CTCTTTTC,-0.123
3,CTCCCGGA,-0.318
4,AAGATGCG,-0.0622
5,GACGTGTA,0.374
6,AACACGAA,0.187
7,GAAGGCTA,-0.123
8,CTATGAAC,0.0471
9,AACACCAC,-0.0954
10,GCTGAAAA,0.0234
11,CGGATCCA,-0.0924
12,AGTAGTCA,0.0613
13,ACAAACGG,-0.063
14,AGAGCTCC,-0.337
15,GTAGGCTA,0.0728
16,ATACAACA,0.197
17,ACTCACTA,0.127
18,ATCGGCAG,-0.217
19,CTTTAGCC,0.0219
20,GGCCCCTA,-0.188
21,CTGTGAAC,-0.157
22,CGTTCGTC,0.222
23,ATAGTGGA,0.0138
24,CATCGTGA,0.0986
25,ATCAATAC,0.231

row,Sequence,PBM E-score
1,GAGATGCC,0.0241
2,GACAACGA,-0.00553
3,CCCTTATC,0.00875
4,TAGGTCGA,-0.0668
5,ATGAAAAA,0.0752
6,AAGGACGC,-0.0793
7,AGTTTCAG,-0.133
8,ACCGGTCT,-0.201
9,ACGGCTAC,0.105
10,CAGTTAAG,-0.0203
11,CCGGACCC,-0.151
12,AAGAGTAG,-0.018
13,ACATTCGC,-0.0797
14,AAGCGCGT,0.12
15,CGTGAAGC,0.134
16,TGAGGAAA,0.0703
17,ACCAACGT,0.334
18,AAGTGGGT,-0.0224
19,AGCCTAAA,-0.0192
20,ATCAGGTA,0.0175
21,CCCTGTCG,-0.144
22,ATAGTGAG,-0.0525
23,AAGTGGAC,-0.0558
24,CACATGCA,-0.0961
25,AAGGGGAC,-0.0793

row,Sequence,PBM E-score
1,ACATGCGC,0.159
2,AATAAATT,0.209
3,TGCTATAA,-0.0988
4,GTAATCTA,0.394
5,CACCATGG,-0.233
6,ACGCGCTC,0.0376
7,ATCTACAA,0.134
8,TGAAGTAA,0.0781
9,AAAAGATC,0.0791
10,ATCAGGAG,-0.204
11,AGCGCCAC,-0.177
12,ACTTAACC,-0.0102
13,GAGCTCCC,-0.21
14,CGGCGACC,-0.219
15,AGCTTCAC,0.128
16,CTTATTCC,-0.0659
17,TACCTGGA,-0.0553
18,ATACAGAC,0.0894
19,ATAGAGAC,0.0383
20,GAGATAAC,0.139
21,GTAGATCA,0.199
22,CGAGTAGC,-0.0163
23,GTAAGTAA,0.156
24,AAGCACGT,0.389
25,CGGTCATA,0.0986

row,Sequence,PBM E-score
1,GCTACTAC,0.223
2,ATTTGGAC,0.0421
3,TAGCAAGA,0.135
4,GCAATCAA,0.0627
5,ATTACCCC,-0.0232
6,CCGCGACA,-0.0282
7,CTAAATAA,0.178
8,GGTGAGGA,-0.132
9,TACAATGA,0.133
10,AGGATCAT,-0.0991
11,AATCGCCC,-0.183
12,GCGGGGTA,-0.162
13,AGCCCGGG,-0.435
14,GTCCTGAA,-0.0708
15,AATCCAGA,0.0558
16,ATGCGGCG,-0.182
17,CAGAAGAA,0.0487
18,AACTCGTG,0.0165
19,AAACTGTT,0.0677
20,AACATTCT,0.147
21,CTGGACAC,-0.319
22,AGCAACTG,0.045
23,TCGGACGA,0.0496
24,ACTAAAAT,0.174
25,CTATTCCA,0.104

row,Sequence,PBM E-score
1,ATAGGGAA,-0.133
2,GGCACTCA,-0.321
3,ATGGCTCG,-0.0717
4,CAGCATGC,-0.0382
5,CTCACTCA,-0.158
6,TGCGCGCA,0.0711
7,ATCCTTCC,-0.244
8,CGACAAGA,-0.0778
9,CACCGCTG,-0.271
10,AGAACTAC,0.0945
11,GAAGCCAA,-0.108
12,ATTAATGC,0.0872
13,CGCAAAGA,0.0514
14,ATGGATCG,-0.0172
15,GCTGCTCA,-0.0507
16,CACAAGAG,-0.0994
17,GAATGCAC,0.0579
18,ACCCGCTC,-0.364
19,TAAGATTA,0.0917
20,CTCGACGC,0.123
21,CCATCTAC,-0.0274
22,CCAGATGG,-0.174
23,CGGAAATC,-0.0803
24,CTGTACAC,0.0671
25,ACGTTCAC,0.28

row,Sequence,PBM E-score
1,ACTATAGC,-0.228
2,ACCACCGC,-0.218
3,CAATTACA,0.167
4,CATAGAGA,0.0951
5,CCGGACAG,-0.137
6,CCCGCCTC,-0.248
7,CCCGGAAG,-0.344
8,AATGGCAA,0.0404
9,AGACGCTA,-0.151
10,ATATTAGC,0.18
11,ATAGCGGC,-0.119
12,AGGTCACG,0.0716
13,GGTAGGAC,-0.245
14,CCTAGCAC,-0.191
15,AATGACAC,0.258
16,TAGAGATA,0.099
17,CCGACGTC,0.309
18,CTGGGCAC,-0.169
19,CATACTAA,0.091
20,CTATTCTC,-0.16
21,ACTGATAA,0.0569
22,ACTCCTCT,-0.174
